# Test results: PubChem BioAssay AID588855 (National Center for Advancing Translational Sciences (NCATS), 2011)
# Several values for one entry are separate records, joined by “and”; a condition that tells them apart may be missing. Equal entries are not always repeated. Screen size: about 410,000 compounds; about 5,000 (1.2%) were called active. Inconclusive results, whose numbers are uncertain, are shown with a selection of clear calls. Calls follow the shape of the dose curve; as a rule, active = well fitted inhibition curve with a large enough effect; inconclusive = small, poorly fitted or top-dose-only effect; inactive = no such curve, though single readings can be large or run the other way. A potency beside an inconclusive call is a rough fit, not a confirmed value.
# Experiment: qHTS for Inhibitors of TGF-b; also: nearly all actives have a fitted effect of over 65% in size
# Conditions: HepG2 CAGA-GFP TGF-b/SMAD3 reporter, GFP fluorescence, 18 h, TGF-beta stimulated, 500 pg/mL final; series mostly up to 46.1 µM; activity, negative = inhibition: at the top concentration
# Summary of the method: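 Per well, imaged GFP fluorescence of HEPG2 CAGA-GFP cells gives the signal; cells get compound, then TGF-beta (500 pg/mL final), 18 h at 37 degrees C; %Activity versus -TGF-beta and +DMSO controls.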
# % is scaled to controls: 0 for no effect and ±100 for the full control effect; potency is read from the fitted curve at half-maximal effect; tags tell the direction and shape of the fitted curve.
SMILES,Potency,"activity, negative = inhibition"
O=C1c2cccc3cccc(c23)C(=O)N1CC1CCN(S(=O)(=O)c2ccc(F)cc2)CC1,"inconclusive: 20 µM [inhibitor, single point]",–
CCC1CN(C(=O)N2CCC(C(=O)Nc3ccccc3F)CC2)c2ccccc2O1 (centres undefined),"inconclusive: 22.4 µM [inhibitor, single point]",–
O=C(c1ccco1)N1CCN(C(=O)c2cnn3c2NC(c2cccs2)CC3C(F)(F)F)CC1 (centres undefined),–,inactive: -11.2%
CC(C)(CC(=O)N1CCN(c2ccc(Cl)cc2)CC1)CC1=NS(=O)(=O)c2ccccc2N1,–,inactive: -0.371%
Cc1ccc(Nc2c(-c3ccccc3O)nc3cnccn23)cc1,–,inactive: -6.18%
Cc1ccccc1S(=O)(=O)Cc1ccc(C(=O)NC(C)c2ccc3c(c2)OCCO3)o1 (centres undefined),–,inactive: 11%
C=CCn1c(NCc2ccc(OC)cc2O)nc2ccccc21,"inconclusive: 35.5 µM [inhibitor, single point]",–
Cn1nnnc1SCCCNCc1cc(Cl)ccc1OCc1ccc(F)cc1,"inconclusive: 35.5 µM [inhibitor, single point]",–
Cc1ccc(-c2csc3ncnc(N4CCN(C(=O)c5ccco5)CC4)c23)cc1,"inconclusive: 35.5 µM [inhibitor, single point]",–
COc1ccc(NC(=O)CCCOc2ccc(Cl)c(C)c2)cc1S(=O)(=O)N1CCOCC1,"inconclusive: 11.2 µM [inhibitor, partial curve, poor fit]",–
Nc1c(C(=O)Nc2ccc(OC(F)(F)F)cc2)sc2nc(-c3ccncc3)ccc12,"inconclusive: 3.55 µM [inhibitor, full curve]",–
COc1ccc(CNC(=O)C2CCCN(S(=O)(=O)c3cccc4nsnc34)C2)cc1 (centres undefined),"inconclusive: 6.31 µM [inhibitor, single point]",–
c1ccc2cc(CSCc3nc4ccccc4[nH]3)ccc2c1,"inconclusive: 11.2 µM [inhibitor, partial curve]",–
COc1cccc(/C=C/C(=O)OCC(=O)N2c3ccccc3CC2C)c1OC (centres undefined),"inconclusive: 35.5 µM [inhibitor, single point]",–
O=c1[nH]c(=O)n(-c2ccc(F)cc2)c2c1C(C(F)(F)F)(C(F)(F)F)N=C(c1ccc(F)cc1)N2,"inconclusive: 25.1 µM [inhibitor, single point]",–
Cc1ccc(NS(=O)(=O)c2ccc(NC(=O)c3ccccc3C(=O)O)cc2)c(C)c1,–,inactive: 5.66%
CCCOc1ccc(CNC(=S)NCc2ccc(OC(C)C)cc2)cc1,"inconclusive: 11.2 µM [inhibitor, partial curve, poor fit]",–
CCn1c(=O)c2ccccc2n(Cc2cccc([N+](=O)[O-])c2)c1=O,–,inactive: 0%
CN(C)CCNc1ncnc2c1cnn2-c1cccc(Cl)c1,"inconclusive: 35.5 µM [inhibitor, single point]",–
O=C1NC(=S)N/C1=C/c1cc2c(cc1[N+](=O)[O-])OCO2,"inconclusive: 2.82 µM [inhibitor, partial curve]",–
O=[N+]([O-])c1ccc(CSc2ccc(S(=O)(=O)N3CCCCCC3)cn2)cc1,"inconclusive: 0.631 µM [inhibitor, partial curve, poor fit]",–
CCN1/C(=C/C(C)=C/c2sc3ccccc3[n+]2CC)Sc2ccccc21,active: 4.47 µM,–

SMILES,Potency,"activity, negative = inhibition"
CC12CCC(C(N)=O)(c3nc4ccccc4nc31)C2(C)C (centres undefined),"inconclusive: 0.794 µM [inhibitor, full curve, poor fit]",–
CCCCSc1nnc2c(n1)OC(c1ccc(Br)s1)N(C(C)=O)c1ccccc1-2 (centres undefined),"inconclusive: 35.5 µM [inhibitor, single point]",–
O=C(CSc1nnc(-c2ccncc2)o1)c1ccc2c(c1)OCCO2,–,inactive: 7.3%
Cc1ccc(CN2CCCN(CC(=O)Nc3ccc(C)cc3C)S2(=O)=O)cc1,"inconclusive: 35.5 µM [inhibitor, single point]",–
Cc1ccc(-c2csc3ncnc(-n4cnc5ccccc54)c23)cc1,–,inactive: 3.16%
CN1CCN(C(=O)C23CC4CC(C)(CC(C)(C4)C2)C3)CC1,–,inactive: 0%
CC(=O)NC(C)c1cc(Cl)c2ccccc2c1O (centres undefined),"inconclusive: 11.2 µM [inhibitor, single point]",–
CCOC(=O)c1c(NC(=O)C(C)Sc2nnc(C)c(=O)[nH]2)sc2c1CCCC2 (centres undefined),"inconclusive: 20 µM [inhibitor, partial curve, poor fit]",–
Cc1ccc2[nH]nc(C(=O)N3CCCC(C(=O)c4ccc(Cl)cc4)C3)c2c1 (centres undefined),"inconclusive: 35.5 µM [inhibitor, single point]",–
O=C(Nc1nc(=O)c2ccccc2s1)c1ccc(F)cc1,"inconclusive: 11.2 µM [inhibitor, partial curve, poor fit]",–
COc1ccc(O)c(/C=c2/sc3nc4cc(C)c(C)cc4n3c2=O)c1,"inconclusive: 31.6 µM [inhibitor, single point]",–
COc1ccc2sc(N(Cc3cccnc3)C(=O)c3ccc4c(c3)OCCO4)nc2c1,"inconclusive: 17.8 µM [inhibitor, partial curve, poor fit]",–
c1ccc2sc(C3CCN(Cc4nnnn4Cc4ccc5c(c4)OCO5)CC3)nc2c1,active: 14.1 µM,–
O=c1[nH]nnc2sc3c(c12)CCCC3,"inconclusive: 3.55 µM [inhibitor, single point]",–
O=S(=O)(c1ccccc1)c1nc(-c2ccco2)oc1NCc1ccccc1,"inconclusive: 0.178 µM [inhibitor, full curve, poor fit]",–
Cc1cccc(-n2cc(-c3ccccc3)c3c(N4CCOCC4)ncnc32)c1,"inconclusive: 25.1 µM [inhibitor, single point]",–
COCCNc1oc(-c2ccccc2)nc1S(=O)(=O)c1ccc(Br)cc1,"inconclusive: 25.1 µM [inhibitor, single point]",–
CC(=O)Nc1ccc(-c2ccnc3c2CC(C(=O)NCc2ccccc2)O3)cc1 (centres undefined),"inconclusive: 1.58 µM [inhibitor, full curve]",–
COc1ccc(NC(=O)CCCSc2nc(-c3ccco3)cc(C(F)(F)F)n2)cc1OC,"inconclusive: 2 µM [inhibitor, full curve] and inconclusive: 35.5 µM [inhibitor, single point]",–
CC(=O)Nc1cc(-c2ccccc2CN(C)C)cn2c(-c3ccc(F)c(Cl)c3)cnc12,"inconclusive: 12.6 µM [inhibitor, partial curve]",–
CCOc1ccccc1C=NN1CCCCCC1,"inconclusive: 0.891 µM [inhibitor, full curve, poor fit]",–
Cc1ccc(/C=C/C(=O)OCC(=O)Nc2cccc(S(=O)(=O)N(C)C)c2)o1,"inconclusive: 35.5 µM [inhibitor, single point]",–

SMILES,Potency,"activity, negative = inhibition"
CCn1cc(C(=O)NCc2ccco2)c(=O)c2cc(S(=O)(=O)N3CCc4ccccc4C3)ccc21,"inconclusive: 35.5 µM [inhibitor, single point]",–
Brc1ccc2c(c1)OCCOCCOc1cc(Br)ccc1OCCOCCOCCO2,"inconclusive: 17.8 µM [inhibitor, partial curve, poor fit]",–
CCOC(=O)C1CCN(C(=O)c2ccc(N(C)S(=O)(=O)c3ccc(OC)cc3)cc2)CC1,"inconclusive: 8.91 µM [inhibitor, partial curve]",–
O=C(NCc1ccc(Cl)cc1)C1CCN(S(=O)(=O)c2cc([N+](=O)[O-])ccc2Cl)CC1,"inconclusive: 22.4 µM [inhibitor, single point]",–
O=C(NNC(=O)c1cc2cc3ccccc3nc2s1)c1cccc(Cl)c1,–,inactive: 2.74%
Cc1cccc(NC(=O)CSc2ccc(-c3ccccn3)nn2)c1,"inconclusive: 6.31 µM [inhibitor, full curve, poor fit]",–
CC(=O)c1ccc(NS(=O)(=O)c2cccc(S(=O)(=O)c3ccc(Cl)cc3)c2)cc1,"inconclusive: 35.5 µM [inhibitor, single point]",–
CCCCSc1nc2sc3c(c2c(=O)n1-c1ccc(OC)cc1)CCN(C)C3,–,inactive: 0%
O=C1C2ON(c3ccc(Br)cc3)C(c3cccnc3)C2C(=O)N1C1CCCCC1 (centres undefined),–,inactive: -2.61%
CSc1scc2c1-c1nc(SCC(=O)C(C)(C)C)ncc1CC2,"inconclusive: 14.1 µM [inhibitor, single point]",–
CCOc1ccc(CCNC(=O)CN2CCN(Cc3ccc(Cl)cc3)C2=O)cc1OCC,"inconclusive: 35.5 µM [inhibitor, single point]",–
CCOC(=O)c1ccc(N2C(=O)c3n[nH]c(-c4ccco4)c3C2c2ccc(C)cc2)cc1 (centres undefined),"inconclusive: 35.5 µM [inhibitor, partial curve, poor fit]",–
COC(=O)c1[nH]c2ccc(F)cc2c1NS(=O)(=O)c1ccc(F)c(C)c1,"inconclusive: 7.08 µM [inhibitor, partial curve]",–
CCc1ccc(S(=O)(=O)N(C(=O)c2ccncc2)c2ccc3oc(C)c(C(=O)OC)c3c2)cc1,"inconclusive: 20 µM [inhibitor, single point]",–
O=C(COc1ccc(S(=O)(=O)N2CCOCC2)cc1Cl)NCc1ccc2c(c1)OCO2,–,inactive: 1.63%
Oc1ccccc1-c1nc(NCCN2CCOCC2)c2ccccc2n1,–,inactive: 7.72%
COc1cccc(Cn2c(Oc3cc(C)cc(C)c3)nc3c2c(=O)n(C)c(=O)n3C)c1,–,inactive: -0.0894%
CN1CCN(c2ccc(Cl)cc2NC(=O)/C=C/c2cccc(F)c2)CC1,"inconclusive: 35.5 µM [inhibitor, single point]",–
CC(=O)N1CCc2cc(S(=O)(=O)NCCN3CCC(C)CC3)ccc21,–,inactive: 12.5%
COc1ccc(CC(=O)N2CCc3cc(OC)c(OC)cc3C2COc2cc(C)cc(C)c2)cc1OC (centres undefined),active: 14.1 µM,–
